Assay results taken from the supplement of paper PMC9446081.
In all, about 39,000 compounds went through this assay and about 220 (0.56%) showed activity. Some of the results follow.

Tested on: Escherichia coli K-12 BW25113
Assay: relative growth (OD600 normalised to plate interquartile mean) (fraction); higher = less growth inhibition, active = 0.2 or less
Settings: 50 µM; LB; incubation time: overnight (16-24 h)
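Further: static incubation at 37 °C against the wild-type strain, values averaged over two biological replicates.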

Row | SMILES | relative growth
1 | O=C(Cc1ccncc1)NCC[C@H]1CC[C@@H](NC(=O)C2CCOCC2)[C@@H](CO)O1 | inactive: 1.01
2 | C[C@H]1CN([C@@H](C)CO)C(=O)Cc2cc(NS(=O)(=O)c3ccccc3)ccc2O[C@@H]1CN(C)S(=O)(=O)c1ccccc1 | inactive: 0.983
3 | C[C@H](CO)N1C[C@H](C)[C@H](CN(C)S(C)(=O)=O)Oc2cc(-c3ccccc3F)ccc2S1(=O)=O | inactive: 0.986
4 | COc1ccc(NC(=O)N(C)C[C@H]2Oc3c(NC(=O)c4ccc(-c5nccs5)cc4)cccc3C(=O)N([C@H](C)CO)C[C@H]2C)cc1 | inactive: 0.988
5 | COc1ccccc1CNC(=O)C[C@H]1C[C@@H]2c3cc(NC(=O)c4cccnc4)ccc3O[C@@H]2[C@H](CO)O1 | inactive: 1.02
6 | C[C@H]1CN([C@@H](C)CO)C(=O)Cc2cc(NC(=O)Nc3ccc4c(c3)OCO4)ccc2O[C@H]1CN(C)Cc1ccc(Cl)c(Cl)c1 | inactive: 0.985
7 | Cc1ncc(CO)c(CO)c1O.Cl | inactive: 1.05
8 | Cc1ccc(S(=O)(=O)Nc2cccc3c2O[C@@H](CN(C)S(=O)(=O)c2ccc(F)cc2)[C@H](C)CN([C@@H](C)CO)C3=O)cc1 | inactive: 0.99
9 | COc1cccc(S(=O)(=O)N(C)C[C@@H]2Oc3ncc(-c4cccc(C(=O)N(C)C)c4)cc3C(=O)N([C@H](C)CO)C[C@H]2C)c1 | inactive: 1.04
10 | C[C@H]1CCCCO[C@H](CN(C)C(=O)Nc2cccc3ccccc23)[C@@H](C)CN([C@@H](C)CO)C(=O)c2cc(NC(=O)CCC(F)(F)F)ccc2O1 | inactive: 0.983
11 | Cc1cc(C(=O)Nc2cccc3c2O[C@@H](CN(C)S(C)(=O)=O)[C@H](C)CN([C@@H](C)CO)C3=O)n(C)n1 | inactive: 1.01
12 | C[C@@H]1CN([C@H](C)CO)C(=O)c2cc(NS(=O)(=O)c3ccc(Cl)cc3)ccc2O[C@@H](C)CCCCO[C@H]1CN(C)Cc1ccccc1 | inactive: 0.965
13 | C[C@@H]1CCCCO[C@@H](CN(C)Cc2ccc(C(F)(F)F)cc2)[C@@H](C)CN([C@H](C)CO)C(=O)c2cc(NS(=O)(=O)c3cn(C)cn3)ccc2O1 | inactive: 1.02
14 | Cc1ccc(S(=O)(=O)Nc2ccc3c(c2)C(=O)N([C@H](C)CO)C[C@@H](C)[C@H](CN(C)Cc2ccncc2)OCCCC[C@@H](C)O3)cc1 | inactive: 1.01
15 | CCCC#Cc1ccc2c(c1)O[C@H](CN(C)S(=O)(=O)c1cccc(OC)c1)[C@H](C)CN([C@H](C)CO)S2(=O)=O | inactive: 1.01
16 | COC(=O)C1=C(C)NC(C)=C(C(=O)OC(C)(C)CN(C)CCC(c2ccccc2)c2ccccc2)[C@@H]1c1cccc([N+](=O)[O-])c1 | inactive: 1.02
17 | NCCC(O)(P(=O)(O)O)P(=O)(O)O | inactive: 1.01
18 | C[C@@H]1CN([C@H](C)CO)C(=O)c2cccc(NS(=O)(=O)c3ccc(F)cc3)c2O[C@@H]1CN(C)Cc1ccc(-c2ccccc2)cc1 | inactive: 1.01
19 | C[C@@H]1CN([C@@H](C)CO)C(=O)Cc2cc(NC(=O)Cc3ccccc3)ccc2O[C@@H]1CN(C)S(C)(=O)=O | inactive: 1.02

Row | SMILES | relative growth
20 | CN(C)CC(=O)N1[C@@H]2c3cccc(=O)n3C[C@H]1[C@H](CO)[C@H]2C(=O)NCc1ccccc1 | inactive: 0.983
21 | Cc1noc(C)c1S(=O)(=O)N(C)C[C@H]1OCCCC[C@@H](C)Oc2ccc(NC(=O)Nc3cccc4ccccc34)cc2C(=O)N([C@@H](C)CO)C[C@H]1C | inactive: 1.02
22 | Cn1cnc(S(=O)(=O)N[C@@H]2CC[C@@H](CC(=O)NCC3CC3)O[C@@H]2CO)c1 | inactive: 0.958
23 | C[C@@H]1CN([C@@H](C)CO)S(=O)(=O)c2ccc(Br)cc2O[C@H]1CN(C)C(=O)c1ccncc1 | inactive: 0.958
24 | C[C@@H]1CCCCO[C@@H](CN(C)CC2CCCCC2)[C@@H](C)CN([C@H](C)CO)C(=O)c2cc(NC(=O)Nc3ccc4c(c3)OCO4)ccc2O1 | inactive: 1.01
25 | COc1ccc(NC(=O)Nc2ccc3c(c2)C(=O)N([C@@H](C)CO)C[C@H](C)[C@H](CN(C)Cc2ccc(C(=O)O)cc2)OCCCC[C@@H](C)O3)cc1 | inactive: 0.984
26 | NC(=O)NCC#Cc1ccc2c(c1)[C@]1(C(=O)N2)[C@H](C(=O)N2CCCCCCC2)[C@H]2C(=O)O[C@H](c3ccccc3)[C@H](c3ccccc3)N2[C@@H]1c1ccccc1OCCO | inactive: 1.04
27 | Cc1onc(C(=O)N2CCOCC2)c1[N+](=O)[O-] | inactive: 1.01
28 | O=C(N[C@H](c1ccc(F)cc1)c1ccc2ccccc2n1)C1CCN(Cc2ccc(Oc3ccccc3)cc2)CC1 | inactive: 1.03
29 | C[C@H]1CN([C@@H](C)CO)C(=O)c2cc(NC(=O)CCN3CCOCC3)ccc2O[C@H]1CN(C)C(=O)Nc1ccccc1 | inactive: 0.992
30 | COc1ccc(NC(=O)N(C)C[C@H]2OCCCC[C@@H](C)Oc3ccc(NC(=O)C4CCCCC4)cc3C(=O)N([C@@H](C)CO)C[C@H]2C)cc1 | inactive: 0.995
31 | C[C@@H]1CCCCO[C@@H](CN(C)C(=O)Nc2ccc(F)cc2)[C@H](C)CN([C@@H](C)CO)C(=O)c2cc(NC(=O)CCC(F)(F)F)ccc2O1 | inactive: 0.986
32 | COc1ccc(S(=O)(=O)N(C)C[C@H]2Oc3ccc(NS(=O)(=O)c4ccc(C)cc4)cc3C(=O)N([C@@H](C)CO)C[C@@H]2C)cc1 | inactive: 1.04
33 | Cc1noc(C)c1S(=O)(=O)Nc1ccc2c(c1)C(=O)N([C@@H](C)CO)C[C@H](C)[C@H](CN(C)CC1CCCCC1)OCCCC[C@@H](C)O2 | inactive: 0.982
34 | O=C(C[C@H]1C=C[C@H](NC(=O)Nc2ccc3c(c2)OCO3)[C@@H](CO)O1)NCCCN1CCOCC1 | inactive: 0.996
35 | Cc1ccc(S(=O)(=O)N(C)C[C@H]2OCCCC[C@@H](C)Oc3ccc(NC(=O)Nc4ccc5c(c4)OCO5)cc3C(=O)N([C@@H](C)CO)C[C@@H]2C)cc1 | inactive: 1.06
36 | COc1cc(OC)cc(C(=O)OCCCN2CCN(CCCOC(=O)c3cc(OC)cc(OC)c3)CC2)c1 | inactive: 1.03
37 | COc1ccc(C#Cc2ccc([C@H]3[C@@H](CO)N4CCCCN(S(=O)(=O)c5cn(C)cn5)C[C@H]34)cc2)cc1 | inactive: 0.961
